No constants are given. Whether binding was seen depends on the method and setting. Binding seen in cells or lysates may run through a third protein. Some results given as binding are weak or reduced against the parent protein; the word gives no strength. For part of these data: Tags and fused reporters may be left off the sequences shown.

Chains of the proteins cited; added tags and fusions are not shown.
UniProt Q13485: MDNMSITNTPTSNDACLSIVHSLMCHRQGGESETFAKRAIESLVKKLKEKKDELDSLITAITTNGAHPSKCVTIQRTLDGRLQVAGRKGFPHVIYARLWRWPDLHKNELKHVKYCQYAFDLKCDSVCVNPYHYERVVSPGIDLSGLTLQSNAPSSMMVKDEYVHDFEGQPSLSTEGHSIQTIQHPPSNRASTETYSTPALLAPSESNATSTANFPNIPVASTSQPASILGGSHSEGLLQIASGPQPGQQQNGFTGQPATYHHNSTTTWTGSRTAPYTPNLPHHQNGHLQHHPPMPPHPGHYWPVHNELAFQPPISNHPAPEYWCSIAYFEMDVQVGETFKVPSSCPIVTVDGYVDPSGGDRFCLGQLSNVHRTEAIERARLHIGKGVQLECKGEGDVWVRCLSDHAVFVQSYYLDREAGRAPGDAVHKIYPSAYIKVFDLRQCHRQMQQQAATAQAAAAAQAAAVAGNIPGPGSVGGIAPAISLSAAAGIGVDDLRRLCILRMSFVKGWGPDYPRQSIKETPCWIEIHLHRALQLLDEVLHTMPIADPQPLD

One experiment deals with HA-Smad4 (UniProt Q13485). As to the kind of experiment: co-IP; plasmids co-transfected into HEK293 cells; lysates (PBS, 0.5% Triton X-100, 20 mM HEPES pH 7.4, 150 mM NaCl) immunoprecipitated with anti-HA, anti-Myc or the indicated antibodies and protein A/G agarose at 4°C for 12 h; immunoblot with anti-Myc or anti-HA.
In experiment [1] the target is T1, Pellino-1 (Supplementary Fig S1, cells not stated) (UniProt Q8C669).
T1 sequence: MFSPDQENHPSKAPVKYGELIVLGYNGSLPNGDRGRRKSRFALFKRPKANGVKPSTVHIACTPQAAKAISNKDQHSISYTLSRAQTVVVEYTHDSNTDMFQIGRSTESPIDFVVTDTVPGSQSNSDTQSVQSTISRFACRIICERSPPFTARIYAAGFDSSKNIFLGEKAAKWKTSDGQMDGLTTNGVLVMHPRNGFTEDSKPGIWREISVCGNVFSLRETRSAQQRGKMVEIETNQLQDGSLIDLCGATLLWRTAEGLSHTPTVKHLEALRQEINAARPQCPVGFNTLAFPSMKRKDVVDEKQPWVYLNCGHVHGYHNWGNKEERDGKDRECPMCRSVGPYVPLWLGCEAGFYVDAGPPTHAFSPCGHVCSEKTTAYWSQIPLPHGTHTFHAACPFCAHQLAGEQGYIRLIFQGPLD
The experiment can be described thus: co-IP; immunoprecipitation assays with TGF-β1-induced Smad6 (Supplementary Fig S1); cells and antibodies not shown.

Experiment [2] has as its target T2, HA-Pellino-1 (full-length Pellino-1) (UniProt Q96FA3).
T2 sequence: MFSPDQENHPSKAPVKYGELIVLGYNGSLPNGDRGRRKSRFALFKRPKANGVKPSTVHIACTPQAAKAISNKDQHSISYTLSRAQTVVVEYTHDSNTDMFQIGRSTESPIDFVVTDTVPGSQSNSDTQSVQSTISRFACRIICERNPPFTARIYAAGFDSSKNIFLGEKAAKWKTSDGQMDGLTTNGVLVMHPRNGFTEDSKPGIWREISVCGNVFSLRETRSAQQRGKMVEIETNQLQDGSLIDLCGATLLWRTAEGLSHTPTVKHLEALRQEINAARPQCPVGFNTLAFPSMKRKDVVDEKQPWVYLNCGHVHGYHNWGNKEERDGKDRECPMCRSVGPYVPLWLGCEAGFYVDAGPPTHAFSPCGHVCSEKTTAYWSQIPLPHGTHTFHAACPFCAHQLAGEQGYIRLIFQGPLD
The experiment can be described thus: co-IP; plasmids co-transfected into HEK293 cells; lysates (PBS, 0.5% Triton X-100, 20 mM HEPES pH 7.4, 150 mM NaCl) immunoprecipitated with anti-HA, anti-Myc or the indicated antibodies and protein A/G agarose at 4°C for 12 h; immunoblot with anti-Myc or anti-HA.

B1: Myc-Smad6 MH2 (Smad6 MH2 domain, amino acids 332-496) (domain or fragment, UniProt O43541 332-496)
chain: CSVAYWEHRTRVGRLYAVYDQAVSIFYDLPQGSGFCLGQLNLEQRSESVRRTRSKIGFGILLSKEPDGVWAYNRGEHPIFVNSPTLDAPGGRALVVRKVPPGYSIKVFDFERSGLQHAPEPDAADGPYDPNSVRISFAKGWGPCYSRQFITSCPCWLEILLNNPR
Take B1: in the experiment with HA-Smad4, the binding result is reported as “binds”.

B2: TGF-β1-induced Smad6 (protein, UniProt O35182 1-495)
chain: MFRSKRSGLVRRLWRSRVVPDREEGSGGGGGVDEDGSLGSRAEPAPRAREGGGCSRSEVRSVAPRRPRDAVGPRGAAIAGRRRRTGGLPRPVSESGAGAGGSPLDVAEPGGPGWLPESDCETVTCCLFSERDAAGAPRDSGDPQARQSPEPEEGGGPRSREARSRLLLLEQELKTVTYSLLKRLKERSLDTLLEAVESRGGVPGGCVLVPRADLRLGGQPAPPQLLLGRLFRWPDLQHAVELKPLCGCHSFTAAADGPTVCCNPYHFSRLCGPESPPPPYSRLSPPDQYKPLDLSDSTLSYTETEATNSLITAPGEFSDASMSPDATKPSHWCSVAYWEHRTRVGRLYAVYDQAVSIFYDLPQGSGFCLGQLNLEQRSESVRRTRSKIGFGILLSKEPDGVWAYNRGEHPIFVNSPTLDAPGGRALVVRKVPPGYSIKVFDFERSGLLQHADAAHGPYDPHSVRISFAKGWGPCYSRQFITSCPCWLEILLNNHR
Regarding B2, the binding result in experiment [1] is “binds”.

B3: Myc-Smad6 (full-length Smad6) (protein, UniProt O43541 1-496)
chain: MFRSKRSGLVRRLWRSRVVPDREEGGSGGGGGGDEDGSLGSRAEPAPRAREGGGCGRSEVRPVAPRRPRDAVGQRGAQGAGRRRRAGGPPRPMSEPGAGAGSSLLDVAEPGGPGWLPESDCETVTCCLFSERDAAGAPRDASDPLAGAALEPAGGGRSREARSRLLLLEQELKTVTYSLLKRLKERSLDTLLEAVESRGGVPGGCVLVPRADLRLGGQPAPPQLLLGRLFRWPDLQHAVELKPLCGCHSFAAAADGPTVCCNPYHFSRLCGPESPPPPYSRLSPRDEYKPLDLSDSTLSYTETEATNSLITAPGEFSDASMSPDATKPSHWCSVAYWEHRTRVGRLYAVYDQAVSIFYDLPQGSGFCLGQLNLEQRSESVRRTRSKIGFGILLSKEPDGVWAYNRGEHPIFVNSPTLDAPGGRALVVRKVPPGYSIKVFDFERSGLQHAPEPDAADGPYDPNSVRISFAKGWGPCYSRQFITSCPCWLEILLNNPR
Turning to B3, in experiment [2], the binding entry is “binds”.

Source of the values: publication PMC4492818.
